Measured values: the supplement of paper PMC3724861
This is one part of the list.

These sequences were tested on T1, Caupolican (Caup) homeodomain DNA-binding domain (assay: PBM E-score (8-mer, recovered from the published 9-mer minima) (E-score (dimensionless, -0.5 to 0.5)); Drosophila protein; higher = stronger relative binding preference, active = 0.31 or more).
T1 sequence: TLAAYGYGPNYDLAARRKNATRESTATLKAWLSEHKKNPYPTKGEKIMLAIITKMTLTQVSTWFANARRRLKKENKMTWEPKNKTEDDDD
Procedure, shortened: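 An enrichment score, with higher meaning stronger, expresses relative binding preference for each short DNA word. The protein used was Caup's homeodomain DNA-binding domain (residues 214-303), produced by in vitro transcription and translation and tested at 100 nM on custom-designed protein binding microarrays. The 8-mer values were recovered from published 9-mer scores, each equal to the lower of its two constituent 8-mer scores.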

| Sequence | PBM E-score |
| --- | --- |
| ATCATGTA | active: ≥ 0.435 |
| GATACCGC | inactive: -0.0341 |
| CGTCACAA | inactive: 0.089 |
| CGAGACCA | inactive: 0.0466 |
| AGCGGGAA | inactive: -0.0954 |
| CCCCTCTC | inactive: -0.3 |
| ATGATCGC | inactive: 0.0374 |
| CTTCCTCA | inactive: -0.122 |
| AATTGATA | inactive: 0.11 |
| ATGACACA | inactive: 0.259 |
| CAGTGGAA | inactive: -0.116 |
| CCGCATCA | inactive: -0.06 |
| GTTACGCA | inactive: -0.0688 |
| CAGTACCA | inactive: 0.0789 |
| AGATCCTG | inactive: -0.045 |
| CCAGAGCA | inactive: 0.007 |
| GATTAGGC | inactive: 0.0729 |
| ACGATTAC | inactive: 0.192 |
| CATGGCCA | inactive: -0.0519 |
| AATTGACG | inactive: 0.004 |
| CGGATACA | inactive: 0.211 |
| CCTTAACC | inactive: -0.0723 |
| CGGCGAAC | inactive: -0.137 |
| TGATGCCA | inactive: 0.00666 |
| CGGTTGTA | inactive: 0.209 |

| Sequence | PBM E-score |
| --- | --- |
| ATTCAAAA | inactive: 0.0259 |
| AAAATAAA | inactive: 0.0878 |
| CGGTCGAC | inactive: -0.153 |
| GTGTGCGA | inactive: -0.105 |
| GTTGAGGA | inactive: -0.0534 |
| ATCGAGTA | inactive: 0.0622 |
| AGTTATGA | inactive: 0.0971 |
| TCCACTCA | inactive: 0.0429 |
| CTTTGTGC | inactive: 0.0421 |
| ATACCCTC | inactive: -0.0894 |
| CCGCATTA | inactive: 0.0385 |
| AACGGACG | inactive: -0.055 |
| CGCGGCGA | ≥ -0.0924 |
| AGCCGGGA | ≥ -0.141 |
| ACGGTTCT | ≥ 0.0266 |
| ATGTCAGC | inactive: 0.289 |
| ATGTTCTC | inactive: 0.281 |
| CTACTTTC | inactive: 0.0564 |
| GTTAATTA | inactive: 0.203 |
| CTTTAACA | inactive: 0.158 |
| AGAGTGAT | inactive: 0.123 |
| GAAACGTC | inactive: -0.039 |
| CTATTAGA | inactive: 0.059 |
| ATGGTCTA | inactive: 0.0474 |
| CCAATAGG | inactive: 0.00699 |

| Sequence | PBM E-score |
| --- | --- |
| TCTGAACA | inactive: 0.242 |
| ATACAGAT | ≥ 0.222 |
| CTACGAAC | inactive: 0.113 |
| CCGGCCCA | inactive: -0.219 |
| AAGTTACC | inactive: 0.148 |
| GTGCCAAA | inactive: -0.0529 |
| CCCGATAC | inactive: -0.088 |
| AAATATCA | inactive: 0.134 |
| AAGGGTTG | inactive: 0.0698 |
| CTCGCATA | inactive: -0.0565 |
| ACTAGTCA | inactive: 0.162 |
| AAACTGTC | inactive: 0.0873 |
| CTTGTTAA | active: 0.327 |
| AACTGCCT | ≥ 0.0161 |
| CGTACGAA | inactive: 0.0215 |
| ATCCCCTC | inactive: -0.135 |
| AAACTGCT | inactive: -0.0162 |
| GAAGAAGA | inactive: 0.015 |
| GAGATGTA | active: 0.329 |
| CTGCTGTA | inactive: 0.0946 |
| CCTGCTTA | inactive: -0.0545 |
| CGGGGTGC | inactive: -0.216 |
| CTACGGTA | inactive: 0.0475 |
| TCGTCAAA | inactive: 0.0757 |
| CCCGTTAC | inactive: 0.0202 |

| Sequence | PBM E-score |
| --- | --- |
| AAACACAG | inactive: 0.273 |
| AGCGAAGA | inactive: -0.102 |
| AAGCTCCG | inactive: -0.123 |
| ACTAATAG | inactive: 0.134 |
| ATGGCGAC | inactive: -0.0851 |
| GTACTGTA | inactive: 0.193 |
| TCGGTCCA | inactive: -0.0904 |
| GATTTTCC | inactive: -0.0697 |
| AAACTGAC | inactive: 0.0172 |
| CTCTTCAA | inactive: -0.113 |
| ACGAACTA | ≥ 0.147 |
| AACGATTC | inactive: 0.0478 |
| ACTTTCGG | inactive: -0.0323 |
| CAAGTCGG | inactive: 0.00372 |
| CTACACAG | inactive: 0.235 |
| GTAGGCAC | inactive: -0.096 |
| CCGGAAAA | inactive: -0.0151 |
| AGAATTGG | inactive: 0.0648 |
| CGATATAA | inactive: 0.116 |
| CCATCCGG | inactive: -0.16 |
| ACCAATGC | inactive: -0.0832 |
| ACTTCAAA | inactive: 0.0409 |
| ACCCTTCG | inactive: -0.152 |
| CAAAGTAA | inactive: 0.0946 |
| AATTTGGA | inactive: 0.0747 |

| Sequence | PBM E-score |
| --- | --- |
| AAGGGCTC | inactive: -0.179 |
| AATTGTTG | inactive: 0.199 |
| CGATGCCA | inactive: -0.0826 |
| CACTCATA | inactive: 0.0823 |
| ACAGATTG | inactive: 0.0908 |
| GATAAAGA | inactive: 0.0509 |
| CAAACCGC | inactive: -0.193 |
| ACGCGCAA | inactive: -0.00735 |
| GTGACTCA | inactive: -0.0435 |
| GCAGTCAC | inactive: -0.0418 |
| ACCACCTG | inactive: -0.031 |
| ACCAGGGA | inactive: -0.049 |
| CCGGGGAG | inactive: -0.223 |
| ACTAGAAT | inactive: 0.138 |
| AACTATGT | inactive: 0.273 |
| AATCAAGT | inactive: 0.0906 |
| ACACGACG | inactive: 0.246 |
| ATGTAAGA | active: 0.332 |
| ATTTGTCA | ≥ 0.248 |
| ACTTCCAA | inactive: -0.0392 |
| ATGCACAT | inactive: 0.22 |
| CCGTAACA | inactive: 0.226 |
| CGGCTGGC | inactive: -0.271 |
| AGTACAGG | ≥ 0.234 |
| GCGAAAGC | inactive: -0.183 |

| Sequence | PBM E-score |
| --- | --- |
| ATAATGTC | inactive: 0.233 |
| AGCATTTG | inactive: 0.0686 |
| AAAGAAGG | inactive: -0.102 |
| AAAATTTA | inactive: 0.0739 |
| GCATCAAC | inactive: 0.0266 |
| CCTGTAAG | inactive: 0.127 |
| ACTTCCCA | inactive: 0.0176 |
| ACGCCCGA | inactive: -0.121 |
| CGAAAAAG | inactive: -0.0656 |
| ACTGGCGG | inactive: -0.109 |
| GTAAGTCA | inactive: 0.0871 |
| CGGCCGAC | inactive: -0.163 |
| ACAGAGAA | ≥ 0.12 |
| CTAGGTGC | inactive: -0.162 |
| TATTGAGA | ≥ 0.0995 |
| ACCGGCGG | inactive: -0.229 |
| CCTTTAAG | inactive: -0.138 |
| CGACCGGA | inactive: -0.196 |
| GTGGAAGA | inactive: -0.0964 |
| GACTCTAA | inactive: -0.034 |
